Data as given in patent US11000038B2, “Pyridone compounds and agricultural and horticultural fungicides containing the same as active ingredients” (priority 2017, dated 2021).

Legend:
[1] = tested on: barley powdery mildew fungi (Blumeria graminis f. sp. hordei); test: Test Example D: barley powdery mildew, spray treatment of barley plants; settings: for Test D control value: barley powdery mildew; for Test D control value class (barley powdery mildew): control value=100{1-(n/3)}
[2] = tested on: grape downy mildew fungus (Plasmopara viticola); test: Test Example G: grape downy mildew, spray treatment of grape plants; settings: for Test G control value: grape downy mildew, 7 to 10 days after inoculation; for Test G control value class (grape downy mildew): 2.5 ml/pot, grape Neomuscat, 7 to 10 days from inoculation
[3] = tested on: gray mold fungi (Botrytis cinerea); test: Test Example B: tomato gray mold, spray treatment of tomato plants; settings: for Test B control value: tomato gray mold; for Test B control value class (tomato gray mold): control value=100{1-(n/3)}
[4] = tested on: cabbage Alternaria sooty spot fungi (Alternaia brassicicola); test: Test Example C: cabbage Alternaria sooty spot, spray treatment of cabbage plants; assay type: in vivo; settings: for Test C control value: cabbage Alternaria sooty spot; for Test C control value class (cabbage Alternaria sooty spot): control value=100{1-(n/3)}
Excerpt: [Test Example C] Cabbage Alternaria Sooty Spot
Test plants (cabbage variety: Shikidori) were cultivated until the cotyledons extended after the sowing of seeds.
<Control Value> Control value=100{1−(n/3)}

[5] = tested on: wheat brown rust fungi (Puccinia recondita); test: Test Example E: wheat brown rust, spray treatment of wheat plants; assay type: in vivo; settings: for Test E control value: wheat brown rust; for Test E control value class (wheat brown rust): control value=100{1-(n/3)}
[6] = spray treatment of barley plants
[7] = spray treatment of tomato plants
[8] = spray treatment of cabbage plants
[9] = spray treatment of wheat plants

SMILES	Test D control value ([1]; spray treatment)	Test G control value ([2]; 250 ppm spray)	Test B control value ([3]; spray treatment)	Test C control value ([4]; spray treatment)	Test E control value ([5]; spray treatment)	Test D control value class (barley powdery mildew) [1, 6]	Test G control value class (grape downy mildew) ([2]; 250 ppm spray)	Test B control value class (tomato gray mold) [3, 7]	Test C control value class (cabbage Alternaria sooty spot) [4, 8]	Test E control value class (wheat brown rust) [5, 9]	further results
Cc1c(F)cccc1-n1cc(C)c(=O)c(C)c1-c1ccccc1 [Compound 483]	L (L shows the control value of 50% or less)	H (H shows the control value of more than 50%)	H (H shows the control value of more than 50%)	H (H shows the control value of more than 50%)	H (H shows the control value of more than 50%)	–	–	–	–	–	–
CCOCOc1ccc(C)c(-n2cc(Br)c(=O)c(Cl)c2-c2c(F)cccc2F)c1 [Compound 432]	H (H shows the control value of more than 50%)	L (L shows the control value of 50% or less)	H (H shows the control value of more than 50%)	H (H shows the control value of more than 50%)	H (H shows the control value of more than 50%)	–	–	–	–	–	–
O=c1c(Br)cn(-c2ccon2)c(-c2c(F)cc(F)cc2F)c1Cl [Compound 126]	–	–	–	–	–	L (L shows the control value of 50% or less)	L (L shows the control value of 50% or less)	H (H shows the control value of more than 50%)	H (H shows the control value of more than 50%)	H (H shows the control value of more than 50%)	–
CCCCn1cc(Br)c(=O)c(Cl)c1-c1c(F)cc(F)cc1F [Compound 233]	–	–	–	–	–	–	–	–	–	–	Test D control value [1, 6]: L (L shows the control value of 50% or less); Test G control value ([2]; 250 ppm spray (2.5 ml/pot)): L (L shows the control value of 50% or less); Test B control value [3, 7]: H (H shows the control value of more than 50%); Test C control value [4, 8]: H (H shows the control value of more than 50%); Test E control value [5, 9]: H (H shows the control value of more than 50%)
CCc1c(-c2ccccc2)n(-c2ccccc2)cc(Br)c1=O [Compound 557]	L (L shows the control value of 50% or less)	L (L shows the control value of 50% or less)	H (H shows the control value of more than 50%)	H (H shows the control value of more than 50%)	H (H shows the control value of more than 50%)	–	–	–	–	–	–
O=c1c(Cl)cn(CCCC(F)(F)F)c(-c2c(F)cc(F)cc2F)c1Cl [Compound 69]	–	–	–	–	–	L (L shows the control value of 50% or less)	L (L shows the control value of 50% or less)	L (L shows the control value of 50% or less)	H (H shows the control value of more than 50%)	H (H shows the control value of more than 50%)	–
Cc1c(N)cccc1-n1cc(Cl)c(=O)c(Cl)c1-c1c(F)cc(F)cc1F [Compound 421]	L (L shows the control value of 50% or less)	L (L shows the control value of 50% or less)	L (L shows the control value of 50% or less)	H (H shows the control value of more than 50%)	H (H shows the control value of more than 50%)	–	–	–	–	–	–
Cc1cn(-c2ccccc2C(C)C)c(-c2c(F)cc(F)cc2F)c(C)c1=O [Compound 397]	L (L shows the control value of 50% or less)	L (L shows the control value of 50% or less)	L (L shows the control value of 50% or less)	H (H shows the control value of more than 50%)	L (L shows the control value of 50% or less)	–	–	–	–	–	–
CCc1c(-c2c(F)cc(F)cc2F)n(-c2ccccc2)cc(C)c1=O [Compound 493]	H (H shows the control value of more than 50%)	L (L shows the control value of 50% or less)	H (H shows the control value of more than 50%)	H (H shows the control value of more than 50%)	H (H shows the control value of more than 50%)	–	–	–	–	–	–
Cc1cccc(C)c1-n1cc(Br)c(=O)c(Cl)c1-c1c(F)cc(F)cc1F [Compound 302]	–	–	–	–	–	–	–	–	–	–	Test D control value [1, 6]: L (L shows the control value of 50% or less); Test G control value ([2]; 250 ppm spray (2.5 ml/pot)): L (L shows the control value of 50% or less); Test B control value [3, 7]: H (H shows the control value of more than 50%); Test C control value [4, 8]: H (H shows the control value of more than 50%); Test E control value [5, 9]: H (H shows the control value of more than 50%)
CC(C)C(C)n1cc(C(F)(F)F)c(=O)c(Cl)c1-c1c(F)cc(F)cc1F (stereo not shown) [Compound 137]	–	–	–	–	–	H (H shows the control value of more than 50%)	L (L shows the control value of 50% or less)	H (H shows the control value of more than 50%)	L (L shows the control value of 50% or less)	L (L shows the control value of 50% or less)	–
CCc1ccc(OCC#N)cc1-n1cc(C)c(=O)c(C)c1-c1c(F)cccc1F [Compound 619]	H (H shows the control value of more than 50%)	H (H shows the control value of more than 50%)	H (H shows the control value of more than 50%)	H (H shows the control value of more than 50%)	H (H shows the control value of more than 50%)	–	–	–	–	–	–
O=c1c(Br)cn(-c2ccccc2)c(-c2c(F)cc(F)cc2F)c1Br [Compound 8]	–	–	–	–	–	L (L shows the control value of 50% or less)	L (L shows the control value of 50% or less)	H (H shows the control value of more than 50%)	H (H shows the control value of more than 50%)	H (H shows the control value of more than 50%)	–
Cc1cc(F)ccc1-n1cc(Cl)c(=O)c(Cl)c1-c1c(F)cc(F)cc1F [Compound 276]	–	–	–	–	–	–	–	–	–	–	Test D control value [1, 6]: L (L shows the control value of 50% or less); Test G control value ([2]; 250 ppm spray (2.5 ml/pot)): L (L shows the control value of 50% or less); Test B control value [3, 7]: H (H shows the control value of more than 50%); Test C control value [4, 8]: H (H shows the control value of more than 50%); Test E control value [5, 9]: H (H shows the control value of more than 50%)
O=c1c(Br)cn(-c2ccccc2F)c(-c2c(F)cc(F)cc2F)c1Br [Compound 22]	–	–	–	–	–	L (L shows the control value of 50% or less)	L (L shows the control value of 50% or less)	H (H shows the control value of more than 50%)	H (H shows the control value of more than 50%)	H (H shows the control value of more than 50%)	–
Cc1cn(-c2cc(F)ccc2Cl)c(-c2ccccc2)c(C)c1=O [Compound 416]	L (L shows the control value of 50% or less)	L (L shows the control value of 50% or less)	H (H shows the control value of more than 50%)	H (H shows the control value of more than 50%)	H (H shows the control value of more than 50%)	–	–	–	–	–	–
CCc1ccccc1-n1cc(Cl)c(=O)c(Br)c1-c1c(F)cc(F)cc1F [Compound 349]	–	–	–	–	–	–	–	–	–	–	Test D control value [1, 6]: H (H shows the control value of more than 50%); Test G control value ([2]; 250 ppm spray (2.5 ml/pot)): L (L shows the control value of 50% or less); Test B control value [3, 7]: H (H shows the control value of more than 50%); Test C control value [4, 8]: H (H shows the control value of more than 50%); Test E control value [5, 9]: H (H shows the control value of more than 50%)
O=c1c(Br)cn(C2CCCCC2)c(-c2c(F)cc(F)cc2F)c1Cl [Compound 29]	–	–	–	–	–	L (L shows the control value of 50% or less)	L (L shows the control value of 50% or less)	L (L shows the control value of 50% or less)	H (H shows the control value of more than 50%)	H (H shows the control value of more than 50%)	–
COc1cc(F)c(-c2c(Br)c(=O)c(Br)cn2-c2ccccc2F)c(F)c1 [Compound 23]	–	–	–	–	–	L (L shows the control value of 50% or less)	L (L shows the control value of 50% or less)	H (H shows the control value of more than 50%)	H (H shows the control value of more than 50%)	H (H shows the control value of more than 50%)	–
O=c1c(Br)cn(-c2cc(F)ccc2Cl)c(-c2ccccc2)c1Cl [Compound 417]	L (L shows the control value of 50% or less)	H (H shows the control value of more than 50%)	H (H shows the control value of more than 50%)	H (H shows the control value of more than 50%)	H (H shows the control value of more than 50%)	–	–	–	–	–	–
